{"source": "the supplement of paper PMC4166925", "note": "± gives the standard deviation of the averaged measurements. Whole data set: some 33,000 sequences, median “E-score (dimensionless, -0.5 to 0.5)” near -0.049, cut for the highest 2% near 0.37. The list shows a part of the results."}
{"tested_on": "T1, PmTbr T-box DNA-binding domain (GST fusion)", "T1 sequence": "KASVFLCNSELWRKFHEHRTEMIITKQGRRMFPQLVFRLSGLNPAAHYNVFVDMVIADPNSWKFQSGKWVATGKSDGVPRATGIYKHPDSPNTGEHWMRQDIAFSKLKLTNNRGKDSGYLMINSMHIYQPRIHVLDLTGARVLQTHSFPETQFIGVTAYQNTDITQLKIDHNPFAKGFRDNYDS", "experiment": "PBM E-score of 8-mer (E-score (dimensionless, -0.5 to 0.5)); Tbr is Tbrain of the sea star Patiria miniata (Pm) or the sea urchin Strongylocentrotus purpuratus (Sp); higher = stronger binding preference; most listed sequences are background and not binding sites", "conditions": "the construct has about 5 more residues each side", "in_short": "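Universal Agilent oligonucleotide arrays, made double-stranded by primer extension, were incubated with 200 nM GST-fused Tbr T-box DNA-binding domain in PBS (pH 7.5). The protein was expressed in BL21 E. coli at 20 °C and purified by glutathione affinity chromatography. After scanning and quantification, the Universal PBM Analysis Suite assigned an enrichment E-score to each ungapped 8-mer, averaged over duplicate arrays.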"}
{"sequence": "AAAGCGTG", "PBM E-score of 8-mer": "0.2812 ± 0.0023"}
{"sequence": "CCTGAGGC", "PBM E-score of 8-mer": "-0.0326 ± 0.054"}
{"sequence": "CCAGCCCA", "PBM E-score of 8-mer": "-0.295 ± 0.028"}
{"sequence": "CGCTTTAC", "PBM E-score of 8-mer": "-0.134 ± 0.0088"}
{"sequence": "AACGGGGA", "PBM E-score of 8-mer": "0.0221 ± 0.059"}
{"sequence": "GCCAAGGA", "PBM E-score of 8-mer": "-0.242 ± 0.0082"}
{"sequence": "CGTGTTTA", "PBM E-score of 8-mer": "0.0204 ± 0.033"}
{"sequence": "CGCGGACA", "PBM E-score of 8-mer": "0.0131 ± 0.015"}
{"sequence": "GCCTGCGA", "PBM E-score of 8-mer": "0.294 ± 0.0096"}
{"sequence": "TCATCCAA", "PBM E-score of 8-mer": "-0.0297 ± 0.06"}
{"sequence": "AATGAACT", "PBM E-score of 8-mer": "-0.231 ± 0.015"}
{"sequence": "GCAATTGA", "PBM E-score of 8-mer": "0.0291 ± 0.04"}
{"sequence": "CTGTTAGC", "PBM E-score of 8-mer": "0.291 ± 0.034"}
{"sequence": "GCGGGAGA", "PBM E-score of 8-mer": "-0.0237 ± 0.01"}
{"sequence": "ACTAAATC", "PBM E-score of 8-mer": "-0.134 ± 0.049"}
{"sequence": "CACACGGC", "PBM E-score of 8-mer": "0.0461 ± 0.026"}
{"sequence": "CAGTATAG", "PBM E-score of 8-mer": "-0.0221 ± 0.0096"}
{"sequence": "AAAGATGA", "PBM E-score of 8-mer": "-0.156 ± 0.008"}
{"sequence": "AGATTGAG", "PBM E-score of 8-mer": "0.0167 ± 0.036"}
{"sequence": "GGAAGTGA", "PBM E-score of 8-mer": "0.297 ± 0.0082"}
{"sequence": "CAATCACC", "PBM E-score of 8-mer": "0.205 ± 0.013"}
{"sequence": "AAGATGAC", "PBM E-score of 8-mer": "0.0813 ± 0.032"}
{"sequence": "CGCGCGCC", "PBM E-score of 8-mer": "0.153 ± 0.017"}
{"sequence": "CAAAACGC", "PBM E-score of 8-mer": "-0.1279 ± 0.00033"}
{"sequence": "ACAGAGGC", "PBM E-score of 8-mer": "0.0769 ± 0.02"}
{"sequence": "ATAAGTAC", "PBM E-score of 8-mer": "-0.184 ± 0.12"}
{"sequence": "CCAAGGCG", "PBM E-score of 8-mer": "0.202 ± 0.0084"}
{"sequence": "ATTAAGGG", "PBM E-score of 8-mer": "-0.168 ± 0.046"}
{"sequence": "GACACCGC", "PBM E-score of 8-mer": "0.307 ± 0.035"}
{"sequence": "CCGCAGAC", "PBM E-score of 8-mer": "-0.175 ± 0.012"}
{"sequence": "CGTTTTTC", "PBM E-score of 8-mer": "-0.0244 ± 0.059"}
{"sequence": "AAGAAGGA", "PBM E-score of 8-mer": "-0.0963 ± 0.055"}
{"sequence": "TGAGTGCA", "PBM E-score of 8-mer": "-0.197 ± 0.048"}
{"sequence": "GAGTCAAC", "PBM E-score of 8-mer": "0.0408 ± 0.02"}
{"sequence": "AAGGATAT", "PBM E-score of 8-mer": "-0.247 ± 0.025"}
{"sequence": "ACACCGCA", "PBM E-score of 8-mer": "0.183 ± 0.081"}
{"sequence": "CCCGCAAG", "PBM E-score of 8-mer": "-0.179 ± 0.0094"}
{"sequence": "AATTAGGA", "PBM E-score of 8-mer": "0.0147 ± 0.042"}
{"sequence": "AATTTTTA", "PBM E-score of 8-mer": "-0.104 ± 0.086"}
{"sequence": "AACACCCG", "PBM E-score of 8-mer": "0.428 ± 0.0098"}
{"sequence": "ACACGTAC", "PBM E-score of 8-mer": "0.332 ± 0.016"}
{"sequence": "CAACGGTC", "PBM E-score of 8-mer": "-0.0397 ± 0.046"}
{"sequence": "AGAGGCGA", "PBM E-score of 8-mer": "0.183 ± 0.043"}
{"sequence": "AGAGGCAA", "PBM E-score of 8-mer": "-0.0848 ± 0.022"}
{"sequence": "ACCTTCTA", "PBM E-score of 8-mer": "0.0294 ± 0.074"}
{"sequence": "GCCCCATA", "PBM E-score of 8-mer": "-0.0424 ± 0.084"}
{"sequence": "GAGCAATC", "PBM E-score of 8-mer": "-0.207 ± 0.01"}
{"sequence": "GGAGGCCA", "PBM E-score of 8-mer": "-0.305 ± 0.077"}
{"sequence": "CCTACGCG", "PBM E-score of 8-mer": "0.17 ± 0.013"}
{"sequence": "AGTGCTCG", "PBM E-score of 8-mer": "0.0353 ± 0.048"}
{"sequence": "GCTAGGAA", "PBM E-score of 8-mer": "-0.064 ± 0.027"}
{"sequence": "CCAACAGA", "PBM E-score of 8-mer": "-0.122 ± 0.055"}
{"sequence": "CACCTACC", "PBM E-score of 8-mer": "0.413 ± 0.015"}
{"sequence": "CAGAAAAA", "PBM E-score of 8-mer": "-0.206 ± 0.11"}
{"sequence": "CATTCTAG", "PBM E-score of 8-mer": "-0.158 ± 0.059"}
{"sequence": "ATCTCGAG", "PBM E-score of 8-mer": "-0.0269 ± 0.052"}
{"sequence": "GGGCTAAA", "PBM E-score of 8-mer": "-0.167 ± 0.021"}
{"sequence": "AGCGGGGA", "PBM E-score of 8-mer": "-0.0409 ± 0.022"}
{"sequence": "CGGGTTTA", "PBM E-score of 8-mer": "-0.0688 ± 0.02"}
{"sequence": "ACACCGCT", "PBM E-score of 8-mer": "0.203 ± 0.016"}
{"sequence": "CTCGTGAC", "PBM E-score of 8-mer": "0.19 ± 0.061"}
{"sequence": "ACGACCAA", "PBM E-score of 8-mer": "-0.151 ± 0.027"}
{"sequence": "GGACCTAC", "PBM E-score of 8-mer": "-0.167 ± 0.037"}
{"sequence": "CACAGAGG", "PBM E-score of 8-mer": "0.000915 ± 0.022"}
{"sequence": "ACACTTCG", "PBM E-score of 8-mer": "0.427 ± 0.0093"}
{"sequence": "CCTGGCCG", "PBM E-score of 8-mer": "0.0174 ± 0.0049"}
{"sequence": "AAATTTCT", "PBM E-score of 8-mer": "-0.0991 ± 0.11"}
{"sequence": "CCTATGCA", "PBM E-score of 8-mer": "-0.116 ± 0.038"}
{"sequence": "AGGTAATG", "PBM E-score of 8-mer": "-0.219 ± 0.025"}
{"sequence": "GCTTGGAA", "PBM E-score of 8-mer": "-0.256 ± 0.031"}
{"sequence": "AATTTAAA", "PBM E-score of 8-mer": "-0.0177 ± 0.17"}
{"sequence": "GACCACGC", "PBM E-score of 8-mer": "-0.0344 ± 0.04"}
{"sequence": "CCACACGC", "PBM E-score of 8-mer": "0.132 ± 0.032"}
{"sequence": "TCTCGCCA", "PBM E-score of 8-mer": "0.254 ± 0.022"}
{"sequence": "CAAGTAAA", "PBM E-score of 8-mer": "-0.012 ± 0.06"}
{"sequence": "CGTTGTTC", "PBM E-score of 8-mer": "-0.162 ± 0.0058"}
{"sequence": "CGTGCTAC", "PBM E-score of 8-mer": "0.185 ± 0.0064"}
{"sequence": "ACCTGGTC", "PBM E-score of 8-mer": "-0.0118 ± 0.057"}
{"sequence": "CTGGTAGA", "PBM E-score of 8-mer": "-0.123 ± 0.012"}
{"sequence": "ACAATTTC", "PBM E-score of 8-mer": "-0.0486 ± 0.02"}
{"sequence": "CGGGGTAA", "PBM E-score of 8-mer": "-0.0278 ± 0.04"}
{"sequence": "CCATCCAA", "PBM E-score of 8-mer": "-0.275 ± 0.032"}
{"sequence": "CATTCGGA", "PBM E-score of 8-mer": "-0.399 ± 0.054"}
{"sequence": "ATCTGCCG", "PBM E-score of 8-mer": "-0.163 ± 0.064"}
{"sequence": "CTCTGTAA", "PBM E-score of 8-mer": "0.00881 ± 0.032"}
{"sequence": "GCTTCCGA", "PBM E-score of 8-mer": "-0.242 ± 0.057"}
{"sequence": "ATATGGTG", "PBM E-score of 8-mer": "0.189 ± 0.0099"}
{"sequence": "GACCAGTA", "PBM E-score of 8-mer": "-0.339 ± 0.047"}
{"sequence": "CCAACTTC", "PBM E-score of 8-mer": "-0.0654 ± 0.06"}
{"sequence": "GTGAATTA", "PBM E-score of 8-mer": "0.1983 ± 0.00084"}
{"sequence": "ACCCCCAG", "PBM E-score of 8-mer": "-0.098 ± 0.0044"}
{"sequence": "AGCTTCCA", "PBM E-score of 8-mer": "-0.231 ± 0.0047"}
{"sequence": "CTTAGAGC", "PBM E-score of 8-mer": "-0.126 ± 0.083"}
{"sequence": "ACAGAGGT", "PBM E-score of 8-mer": "0.0917 ± 0.035"}
{"sequence": "CGTTGAAC", "PBM E-score of 8-mer": "-0.16 ± 0.006"}
{"sequence": "GGGTGGTA", "PBM E-score of 8-mer": "0.121 ± 0.07"}
{"sequence": "AGCGATAA", "PBM E-score of 8-mer": "0.108 ± 0.019"}
{"sequence": "CGTAACAC", "PBM E-score of 8-mer": "0.365 ± 0.011"}
{"sequence": "ACAGGCCT", "PBM E-score of 8-mer": "-0.272 ± 0.04"}
{"sequence": "AGGACGTA", "PBM E-score of 8-mer": "-0.142 ± 0.037"}
{"sequence": "GGTCGGAA", "PBM E-score of 8-mer": "0.0241 ± 0.014"}
{"sequence": "AAAACAGG", "PBM E-score of 8-mer": "0.0244 ± 0.055"}
{"sequence": "CAGTCAAC", "PBM E-score of 8-mer": "-0.00364 ± 0.076"}
{"sequence": "ATGCACAG", "PBM E-score of 8-mer": "-0.182 ± 0.025"}
{"sequence": "AGACAACC", "PBM E-score of 8-mer": "-0.14 ± 0.013"}
{"sequence": "AATGTCAA", "PBM E-score of 8-mer": "0.0345 ± 0.052"}
{"sequence": "CAGTTTTC", "PBM E-score of 8-mer": "0.0449 ± 0.02"}
{"sequence": "AGCCTGAG", "PBM E-score of 8-mer": "-0.196 ± 0.038"}
{"sequence": "CATTAAGA", "PBM E-score of 8-mer": "-0.221 ± 0.087"}
{"sequence": "TATGCAGA", "PBM E-score of 8-mer": "0.0147 ± 0.029"}
